Data from PubChem BioAssay AID1030 (National Center for Advancing Translational Sciences (NCATS), 2008).
Hit rate of the full screen: of about 220,000 compounds, about 16,000 (7.3%) were called active. The shares of active, inactive and inconclusive entries below differ from those in the screen. The call rests on the fitted dose curve; in most records, active means well fitted inhibition curve with a large enough effect (not every such curve was filed as active); inconclusive means small, poorly fitted or top-dose-only effect, or another doubt; inactive means no such curve, though single readings can be large or run the other way. No potency is given beside an inconclusive call; the fits are too rough.

biological target: Aldehyde dehydrogenase 1A1 (Homo sapiens) (UniProt P00352); test: qHTS Assay for Inhibitors of Aldehyde Dehydrogenase 1 (ALDH1A1); conditions: Purified ALDH1A1, NADH fluorescence, propionaldehyde substrate; series mostly up to 75.3 µM;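 on activity, negative = inhibition: plate controls were no enzyme wells and a reference inhibitor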
Potency means the concentration at half of the fitted maximal effect; tags describe the fitted curve by direction and shape.

Sequence of UniProt P00352 (P00352 whole entry, looked up): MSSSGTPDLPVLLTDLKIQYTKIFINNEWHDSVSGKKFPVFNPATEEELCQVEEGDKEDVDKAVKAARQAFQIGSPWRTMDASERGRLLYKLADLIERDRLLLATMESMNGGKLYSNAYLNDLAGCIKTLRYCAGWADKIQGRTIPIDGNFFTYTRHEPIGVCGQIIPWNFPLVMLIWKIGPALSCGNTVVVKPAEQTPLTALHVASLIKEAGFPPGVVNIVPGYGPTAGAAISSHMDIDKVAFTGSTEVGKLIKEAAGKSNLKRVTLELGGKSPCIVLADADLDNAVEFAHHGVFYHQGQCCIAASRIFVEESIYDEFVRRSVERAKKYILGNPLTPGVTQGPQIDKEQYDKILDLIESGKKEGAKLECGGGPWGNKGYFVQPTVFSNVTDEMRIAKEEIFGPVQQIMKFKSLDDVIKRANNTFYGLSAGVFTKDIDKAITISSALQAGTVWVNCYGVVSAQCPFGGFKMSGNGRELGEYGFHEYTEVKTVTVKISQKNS

Row | SMILES | Potency | activity, negative = inhibition
1 | O=C(CSc1nc2ccccc2c(=O)n1-c1ccc(F)cc1F)c1c[nH]c2ccccc12 | inconclusive [inhibitor, single point] | 
2 | CC(C)(C)C(=O)Nc1nnc(CSCc2ccccc2F)s1 | inconclusive [inhibitor, single point] | 
3 | Cc1ccc(C(OCC(C)(C)C[N+](C)(C)C)c2ccccc2)cc1 (stereo not given) | inactive | 
4 | CCOC(=O)c1sc(=S)n(C)c1NC(=O)c1ccccc1 | active: 3.55 µM | 
5 | O=C(/C=C/c1cccc([N+](=O)[O-])c1)NCCSc1ccccc1 | inconclusive [inhibitor, single point] | 
6 | CC(=O)N(Cc1ccc(Br)cc1)c1cccc(C)c1C | inconclusive [inhibitor, partial curve] | 
7 | Cc1cc2oc3c(c(=O)c2cc1C)C(c1cccc(Br)c1)N(Cc1ccco1)C3=O (stereo not given) | inconclusive [inhibitor, single point] | 
8 | COc1cc(/C=C(\C#N)C(=O)NCC2CCCO2)c([N+](=O)[O-])cc1OC (stereo not given) | inconclusive [inhibitor, partial curve] | 
9 | CC(C)(C)c1ccc(OC(=O)Nc2ccc(O)c(C(=O)O)c2)cc1 |  | inactive: -2.68% [at 13.5 µM]
10 | CCNC(=S)N1CCN(C(c2ccccc2)c2ccccc2)CC1 | active: 3.16 µM | 
11 | CC1CN(C(=S)NC(=O)c2ccc([N+](=O)[O-])cc2)CC(C)O1 (stereo not given) | inactive | 
12 | C/C(=N\NC(=O)c1ccccc1F)c1ccc2c(c1)Nc1ccccc1S2 | inactive | 
13 | COc1ccccc1-c1c(C)oc2c(CN3CCN(CCO)CC3)c(O)ccc2c1=O | inconclusive [inhibitor, partial curve] | 
14 | CCOc1ccc2[nH]c(=O)c(CN(Cc3cccs3)Cc3nnnn3C(C)(C)CC)cc2c1 | inconclusive [inhibitor, partial curve] | 
15 | COc1ccc(CNC(=O)c2ccccc2SC)cc1 | inactive | 
16 | O=C(CCCSc1nc2sc3c(c2c(=O)[nH]1)CCC3)NCCCO | inconclusive [inhibitor, single point] | 
17 | Cc1ccnc(NC(=O)CCC(=O)N(CC(=O)NCCc2ccccc2)Cc2cccs2)c1 | active: 14.1 µM | 
18 | CCC(O)(CC)C(=O)N=Nc1c(O)[nH]c2ccccc12 | inconclusive [inhibitor, single point] | 
19 | Cc1oc(C(=O)O)cc1COc1ccc2c3c(c(=O)oc2c1C)CCC3 | inconclusive [inhibitor, partial curve] | 
20 | CC(NC(=O)CNC(=S)N(Cc1ccccc1)Cc1cccnc1)c1ccccc1 (stereo not given) | inactive | 
21 | c1ccn(-c2ccc(N3CCOCC3)cc2)c1 | inconclusive [inhibitor, partial curve] | 
22 | Cc1ccc(N(CC(=O)Nc2ccccc2C(=O)NCc2ccco2)S(=O)(=O)c2ccccc2)cc1C | inconclusive [inhibitor, single point] | 
23 | CCC(=O)NC(NC(=S)Nc1ccc(S(N)(=O)=O)cc1)C(Cl)(Cl)Cl (stereo not given) | inconclusive [inhibitor, partial curve, poor fit] | 
24 | CCOC(=O)C1=C(O)/C(=C\c2ccc(CNS(=O)(=O)c3ccc(Br)cc3)o2)N=C1C | inactive | 
25 | Cc1c(C(=O)O)oc2ccc(S(=O)(=O)N3CC(C)CC(C)C3)cc12 (stereo not given) | inactive | 

Row | SMILES | Potency | activity, negative = inhibition
26 | Cc1ccc(N2CC(C(=O)N3CCN(C(=O)c4ccco4)CC3)CC2=O)cc1 (stereo not given) | inconclusive [inhibitor, single point] | 
27 | COCCn1c(SCC#N)nnc1-c1ccc(OC)cc1 | inactive | 
28 | O=C(CCNc1cc(Cl)cc(Cl)c1)c1ccco1 | active: 7.94 µM | 
29 | COc1ccc(C(=O)c2no[n+]([O-])c2C(=O)c2ccc(OC)cc2)cc1 | active: 1 µM | 
30 | S=C(Nc1ccccc1)Nc1ccccc1-n1cccc1 | inactive | 
31 | COCCNC(=O)CCc1ccc(S(=O)(=O)Nc2ccc(C)cc2)cc1 | inconclusive [inhibitor, partial curve] | 
32 | COc1ccc(N2CCN(C(=O)c3cccnc3SCc3cccc(Br)c3)CC2)cc1 | inactive | 
33 | CC1=C(C)NC(=S)SC1 | active: 22.4 µM | 
34 | CCC(C)NS(=O)(=O)c1ccc(S(=O)(=O)N(CC(=O)Nc2ccccc2)Cc2ccco2)cc1 (stereo not given) | active: 25.1 µM | 
35 | COc1nc(N2CCCC2)nc(-n2nnc(C(C)=O)c2C)n1 | inactive | 
36 | COc1cc(/C=N/Nc2ccccc2C(F)(F)F)ccc1O | inconclusive [inhibitor, single point] | 
37 | Cc1[nH]nc2c1C(c1cccnc1)N(c1ccc(Br)cc1)C2=O (stereo not given) | inactive | 
38 | O=C(NC1CCCCCCC1)c1ccc(S(=O)(=O)N2CCCC2)cc1 | inconclusive [inhibitor, partial curve] | 
39 | COc1cccc2cc(C(N)=O)oc12 | inconclusive [inhibitor, single point] | 
40 | COc1ccc(C)cc1NC(=O)C(=O)N/N=C(\C)CC(=O)Nc1cccnc1 | inconclusive [inhibitor, single point] | 
41 | O=C(CCC(=O)NCCCc1ccccc1)NCCCc1ccccc1 | inactive | 
42 | Cc1cccc(-c2nc3ccccc3c(=O)n2NC(=O)Cc2ccc(Cl)cc2)c1 | inconclusive [inhibitor, partial curve] | 
43 | COc1cccc(-c2cncnc2NCCN2CCOCC2)c1 | inactive | 
44 | CCOC(=O)C1CCN(C(=O)NC23CC4CC(CC(C4)C2)C3)CC1 | inconclusive [inhibitor, single point] | 
45 | O=C(CSc1nnnn1-c1ccc(O)cc1)Nc1ccc(N2CCOCC2)c(Cl)c1 | inconclusive [inhibitor, single point] | 
46 | COc1ccc(N(CC(=O)NCCC2=CCCCC2)S(=O)(=O)c2ccc(C)cc2)cc1OC | inconclusive [inhibitor, single point] | 
47 | COCCn1c(=S)[nH]c2cc(C(=O)N3CCc4ccccc43)ccc2c1=O | inconclusive [inhibitor, partial curve] | 
48 | CCOC(=O)c1[nH]c2ccccc2c1NC(=O)c1ccc(S(=O)(=O)N2CCCC2)cc1 | inactive | 
49 | CCS(=O)(=O)c1ccc(C(=O)NC2CC2)c(Cl)c1Cl | inactive | 
50 | O=C(NC(=S)Nc1ccc(N2CCOCC2)cc1)c1ccccc1 | inconclusive [inhibitor, single point] | 

Row | SMILES | Potency | activity, negative = inhibition
51 | O=Cc1c(N2CCCCC2)nc2ccccn2c1=O | inconclusive [inhibitor, partial curve] | 
52 | Cc1ccc(S(=O)(=O)Nc2ccc(S(=O)(=O)N3CCCC3)cc2)cc1 | active: 0.562 µM | 
53 | Nc1ccc(-c2sc(N)nc2-c2ccccc2)cc1 | inconclusive [inhibitor, single point] | 
54 | CCn1c(C)c(C(C)=O)c(N2CCCCC2)nc1=S | inactive | 
55 | Cc1c(C(=O)Nc2ccc(Br)cc2)cnn1C | inactive | 
56 | COC(=O)c1ccc(SC2CCCCC2)c([N+](=O)[O-])c1 | inactive | 
57 | O=C(NNC(=O)C1CCCO1)c1ccc(Cl)cc1 (stereo not given) | inactive | 
58 | CCC(C(=O)OCC(=O)Nc1cc(Cl)cc(Cl)c1)c1ccccc1 (stereo not given) | inactive | 
59 | Cc1ccc(Nc2nc(-c3sc(NC(=O)c4ccc([N+](=O)[O-])cc4)nc3C)cs2)cc1 | inconclusive [inhibitor, single point] | 
60 | O=C(NC(=S)Nc1ccc(N2CCOCC2)c(Cl)c1)c1cncc(Br)c1 | active: 7.94 µM | 
61 | CCN(CCn1cccn1)Cc1nc(-c2ccc(C(=O)OC)cc2)no1 | inactive | 
62 | Clc1cccc(/C(Cc2nc3ccccc3[nH]2)=N\Nc2ccccc2)c1 | inconclusive [inhibitor, single point] | 
63 | Cc1ccc(COn2c(-c3ccc(Cl)cc3)nc3ccc([N+](=O)[O-])cc32)cc1 | inconclusive [inhibitor, partial curve] | 
64 | CCn1cnc2cc(NCc3ccc(N(C)C)cc3)ccc21 | inconclusive [inhibitor, partial curve] | 
65 | COC(=O)[C@H](CCSC)NC(=O)NCCC1=CCCCC1 | inconclusive [inhibitor, single point] | 
66 | COc1cc(-c2nc(-c3ccccc3)c(-c3ccc(F)cc3)[nH]2)cc2c1OCO2 | inconclusive [inhibitor, partial curve] | 
67 | O=S(=O)(NCc1ccccn1)c1ccc(Cl)c(C(F)(F)F)c1 | inconclusive [inhibitor, single point] | 
68 | Cc1ccc(C2CC2c2n[nH]c(=S)n2-c2ccc(Cl)cc2)cc1 (stereo not given) | inconclusive [inhibitor, partial curve] | 
69 | COCCNC(=S)N/N=C1\CC(C)CC(C)(C)C1 (stereo not given) | active: 8.91 µM | 
70 | Cc1cccc(S(=O)(=O)c2c(N)n(-c3ccccc3)c3nc4ccccc4nc23)c1 | inconclusive [inhibitor, partial curve] | 
71 | O=C(CN1C(=O)NC2(CCCC2)C1=O)Nc1ccc(S(=O)(=O)N2CCOCC2)cc1 | inactive | 
72 | COc1ccc(COn2c(=O)c(C)[n+]([O-])c3ccccc32)cc1OC | inconclusive [inhibitor, partial curve] | 
73 | C=CCn1c(CCC(=O)O)ccc1-c1ccc(OC)cc1 | inconclusive [inhibitor, partial curve] | 
74 | O=C(O)CNC(=O)/C=C/c1c(Cl)cccc1Cl | inactive | 
75 | CSCCC1NC2(C(=O)Nc3c(Cl)cccc32)[C@@H]2C(=O)N(C3CCCC3)C(=O)[C@H]12 (stereo not given in full) | inconclusive [inhibitor, single point] | 
